Consider 153 variants from a collection of fitness landscapes (doi:10.1016/j.celrep.2020.107928).

Over roughly 81,000 sequences, “one-hybrid fitness for binding NBS DNA” has its median near -0.1; the highest 2% begin near 0.36. Some of the results follow.

Sequences and labels used below:
B1: Caulobacter ParB omega fusion; a variant is named by its letters at X, in order, B8GW30 (parent)
chain: MESVVVGEPGMSEGRRGLGRGLSALLGEVDAAPAQAPGEQLGGSREAPIEILQRNPDQPRRTFREEDLEDLSNSIREKGVLQPILVRPSPDTAGEYQIVAGERAWRAAQRAGLKTVPIMVRELDDLAVLEIGIIENVQRADLNVLEEALSYKVLMEKFERTQENIAQTIGKSXSHVANXMRLLXLPDEVQSYLVSGELTAXHARAIAAAADPVALAKQIIEGGLSVRETEALARKAPNLSAGKSKGGRPPRVKDTDTQALESDLSSVLGLDVSIDHRGSTGTLTITYATLEQLDDLCNRLTRGI

Variants of B1 are the subject of the test. The test can be described thus: one-hybrid fitness for binding NBS DNA (the Noc-binding site; scaled: cognate 1, non-cognate 0); higher = stronger binding. The settings on record: with NBS DNA site. An outline of the steps: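 On M9-minus-histidine containing 0.1 mM IPTG and 5 mM 3-AT, E. coli USO cells with a HIS3 reporter, site 19 bp from the promoter, grew 48 hours at 37°C to select Caulobacter ParB libraries randomised at four specificity codons. Plasmids from before and after were Illumina-sequenced, with three replicate libraries pooled and variants under 10 reads left out. Fitness is the log change in variant-to-wild-type read ratio, rescaled against cognate and non-cognate.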
In the case of RPDV, the “one-hybrid fitness for binding NBS DNA” value was no more than 0.2. For RLNA the value was 0.218; for QHGP, no more than 0.2; for KGPT, no more than 0.2. With WKTV the figure was no more than 0.2. For TRTL, the “one-hybrid fitness for binding NBS DNA” value was no more than 0.2. For PWAG the value was no more than 0.2; for FKNR, no more than 0.2; for QMRN, 0.439.

Regarding AHGE, the “one-hybrid fitness for binding NBS DNA” value was no more than 0.2.

RASR: the “one-hybrid fitness for binding NBS DNA” value was 0.417.

Consider DEVR, for which the “one-hybrid fitness for binding NBS DNA” value was no more than 0.2.

As to CCRA, the “one-hybrid fitness for binding NBS DNA” value was no more than 0.2. With PLTS the figure was no more than 0.2. For QSSN the value was no more than 0.2. For YTSM the value was no more than 0.2; for MAKW, no more than 0.2; for VGWS, no more than 0.2. Turning to RIIM, the “one-hybrid fitness for binding NBS DNA” value was no more than 0.2.

As for SSFR, the “one-hybrid fitness for binding NBS DNA” value was no more than 0.2.

For QIKE, the “one-hybrid fitness for binding NBS DNA” value was no more than 0.2. With LSDG the figure was no more than 0.2; with WMNV, no more than 0.2.

GEYT: the “one-hybrid fitness for binding NBS DNA” value was no more than 0.2. With ARIL the figure was no more than 0.2; with AHSI, no more than 0.2; with FLMR, no more than 0.2.

As to RMNE, the “one-hybrid fitness for binding NBS DNA” value was no more than 0.2. With QRTG the figure was 0.356. For the variant RSFC, the “one-hybrid fitness for binding NBS DNA” value is no more than 0.2. For the variant PWVY, the “one-hybrid fitness for binding NBS DNA” value is no more than 0.2. Turning to RKDW, the “one-hybrid fitness for binding NBS DNA” value is no more than 0.2.

LVWD: the “one-hybrid fitness for binding NBS DNA” value was no more than 0.2. With WLNC the figure was no more than 0.2; with QMGA, 0.253; with VIAN, no more than 0.2. With MVSA the figure was no more than 0.2; with QTGD, no more than 0.2; with PVRT, no more than 0.2.

RVEG: the “one-hybrid fitness for binding NBS DNA” value is no more than 0.2. For AAHL the value was no more than 0.2.

Take QLCL: the “one-hybrid fitness for binding NBS DNA” value is no more than 0.2. Take PLDG: the “one-hybrid fitness for binding NBS DNA” value was no more than 0.2. For VNNN the value was no more than 0.2; for SGVI, no more than 0.2; for FQTG, no more than 0.2.

With TDNR, the “one-hybrid fitness for binding NBS DNA” value is no more than 0.2. Turning to NVGC, the “one-hybrid fitness for binding NBS DNA” value is no more than 0.2. Regarding PWRY, the “one-hybrid fitness for binding NBS DNA” value is no more than 0.2. For MTAT the value was no more than 0.2. As for VAGM, the “one-hybrid fitness for binding NBS DNA” value was no more than 0.2. For ACVT the value was no more than 0.2; for HVGP, no more than 0.2; for KQCR, no more than 0.2.

Consider REAV, for which the “one-hybrid fitness for binding NBS DNA” value is no more than 0.2. For VRHL, the “one-hybrid fitness for binding NBS DNA” value is no more than 0.2. For DHVA the value was no more than 0.2; for SCTK, no more than 0.2.

On to YQVR, for which the “one-hybrid fitness for binding NBS DNA” value was no more than 0.2. Turning to EPFR, the “one-hybrid fitness for binding NBS DNA” value was no more than 0.2. Take WVKT: the “one-hybrid fitness for binding NBS DNA” value was no more than 0.2. For IVIR the value was no more than 0.2. For RFPA the value was no more than 0.2; for HRTC, no more than 0.2; for FRLK, no more than 0.2. Regarding LFMS, the “one-hybrid fitness for binding NBS DNA” value was no more than 0.2.

On to LTMF, for which the “one-hybrid fitness for binding NBS DNA” value was no more than 0.2.

For QYYA, the “one-hybrid fitness for binding NBS DNA” value is 0.271. Regarding PQAE, the “one-hybrid fitness for binding NBS DNA” value was no more than 0.2. In the case of ATSY, the “one-hybrid fitness for binding NBS DNA” value is no more than 0.2. For AYTR the value was no more than 0.2. With RLFN the figure was no more than 0.2; with AQCR, no more than 0.2. Turning to WCER, the “one-hybrid fitness for binding NBS DNA” value is no more than 0.2. Take TDYL: the “one-hybrid fitness for binding NBS DNA” value is no more than 0.2.

YNSV: the “one-hybrid fitness for binding NBS DNA” value was no more than 0.2. For VIDN the value was no more than 0.2; for YNRM, no more than 0.2; for QTPL, no more than 0.2. For HMQS the value was no more than 0.2; for GMER, no more than 0.2; for RQEV, no more than 0.2.

Consider WLPT, for which the “one-hybrid fitness for binding NBS DNA” value was no more than 0.2. For MDPA the value was no more than 0.2; for RAMG, no more than 0.2; for RVCQ, no more than 0.2. Turning to ECNC, the “one-hybrid fitness for binding NBS DNA” value is no more than 0.2. Consider IRVG, for which the “one-hybrid fitness for binding NBS DNA” value was no more than 0.2. For FEMN the value was no more than 0.2; for PYQR, no more than 0.2. For QCTK the value was no more than 0.2; for SAAP, no more than 0.2; for EHMT, no more than 0.2. As for TKYC, the “one-hybrid fitness for binding NBS DNA” value was no more than 0.2.

Consider QKRE, for which the “one-hybrid fitness for binding NBS DNA” value came out at 0.248. With KRVR the figure was 0.456; with RHCP, no more than 0.2; with HAMG, no more than 0.2.

For IRDG, the “one-hybrid fitness for binding NBS DNA” value is no more than 0.2. For EPAL the value was no more than 0.2. For the variant FKKG, the “one-hybrid fitness for binding NBS DNA” value is no more than 0.2. For FLKN the value was no more than 0.2. Turning to VEIT, the “one-hybrid fitness for binding NBS DNA” value was no more than 0.2. With RSYQ, the “one-hybrid fitness for binding NBS DNA” value is no more than 0.2. Consider FMKF, for which the “one-hybrid fitness for binding NBS DNA” value is no more than 0.2. With SQTM the figure was no more than 0.2. Regarding KACG, the “one-hybrid fitness for binding NBS DNA” value is no more than 0.2. For QSVM the value was no more than 0.2; for ATCW, no more than 0.2; for MATH, no more than 0.2.

RGYI: the “one-hybrid fitness for binding NBS DNA” value was no more than 0.2. In the case of MDSC, the “one-hybrid fitness for binding NBS DNA” value is no more than 0.2. Regarding ICSL, the “one-hybrid fitness for binding NBS DNA” value is no more than 0.2. Turning to ALKN, the “one-hybrid fitness for binding NBS DNA” value is no more than 0.2.

SIEL: the “one-hybrid fitness for binding NBS DNA” value is no more than 0.2. Consider LTAR, for which the “one-hybrid fitness for binding NBS DNA” value is no more than 0.2. For the variant VLQP, the “one-hybrid fitness for binding NBS DNA” value was no more than 0.2.

As to WIAS, the “one-hybrid fitness for binding NBS DNA” value is no more than 0.2.

Regarding IEAR, the “one-hybrid fitness for binding NBS DNA” value was no more than 0.2. As for DPSH, the “one-hybrid fitness for binding NBS DNA” value was no more than 0.2. For PRVQ the value was no more than 0.2; for TRPN, no more than 0.2. Regarding KAAY, the “one-hybrid fitness for binding NBS DNA” value was no more than 0.2. For DVYG the value was no more than 0.2; for GVQV, no more than 0.2. For QTMD the value was no more than 0.2; for TYYY, no more than 0.2; for RTVE, no more than 0.2.

For the variant RQYA, the “one-hybrid fitness for binding NBS DNA” value is no more than 0.2.

Regarding PWAS, the “one-hybrid fitness for binding NBS DNA” value is no more than 0.2. Turning to MMLF, the “one-hybrid fitness for binding NBS DNA” value is no more than 0.2. Regarding ESRC, the “one-hybrid fitness for binding NBS DNA” value is no more than 0.2.

Consider SICY, for which the “one-hybrid fitness for binding NBS DNA” value was no more than 0.2. HAPC: the “one-hybrid fitness for binding NBS DNA” value was no more than 0.2. Turning to SMNV, the “one-hybrid fitness for binding NBS DNA” value is no more than 0.2. With TNQS the figure was no more than 0.2. For EPGF the value was no more than 0.2.

For the variant QPDK, the “one-hybrid fitness for binding NBS DNA” value was no more than 0.2.

For PEVT, the “one-hybrid fitness for binding NBS DNA” value was no more than 0.2. Regarding FPRG, the “one-hybrid fitness for binding NBS DNA” value was no more than 0.2. With LVLM the figure was no more than 0.2. On to HRNE, for which the “one-hybrid fitness for binding NBS DNA” value was no more than 0.2. Regarding SAKF, the “one-hybrid fitness for binding NBS DNA” value is no more than 0.2.

As for LAGG, the “one-hybrid fitness for binding NBS DNA” value was no more than 0.2. As to EITG, the “one-hybrid fitness for binding NBS DNA” value was no more than 0.2. For WGVS the value was no more than 0.2. With SCSI the figure was no more than 0.2; with DRQV, no more than 0.2; with MPRP, no more than 0.2.

PVIG: the “one-hybrid fitness for binding NBS DNA” value is no more than 0.2.

Regarding SERW, the “one-hybrid fitness for binding NBS DNA” value was no more than 0.2.

As to LTND, the “one-hybrid fitness for binding NBS DNA” value is no more than 0.2. With QAPY the figure was no more than 0.2.
